# Experimental data as given in the supplement of paper PMC8728848.
# Some of the results follow.
# Experiments:
# Test in all cases: glycan array binding signal (z-score within array); higher = stronger binding
# Details in all cases: glycan notation: IUPAC condensed, linker removed
# [1] = target: Neu5Ac(a2-6)Gal(b1-4)GlcNAc(b1-6)[Gal(b1-3)]GalNAc
# Outline: (§1)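 The Consortium for Functional Glycomics database supplied 3228 glycan arrays, of which those lacking an available protein sequence were dropped. The binding signal, a within-array Z-score, was averaged across arrays of the same protein sequence and across linkers. Negative scores can be read as non-binding.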
# [2] = target: Neu5Ac(a2-6)Gal(b1-4)GlcNAc6S
# Outline: as §1
# Neu5Ac(a2-6)GalNAc = target: Neu5Ac(a2-6)GalNAc
# Outline: as §1
# [3] = target: Neu5Ac(a2-6)GalNAc(b1-4)GlcNAc
# Outline: as §1
# [4] = target: Neu5Ac(a2-6)GalNAc(b1-4)GlcNAc6S
# Outline: as §1
# [5] = target: Neu5Ac(a2-6)GlcNAc(b1-4)GlcNAc
# Outline: as §1
# [6] = target: Neu5Ac(a2-6)GlcNAc(b1-4)GlcNAc(b1-4)GlcNAc
# Outline: as §1
# Neu5Ac(a2-8)Neu5Ac = target: Neu5Ac(a2-8)Neu5Ac
# Outline: as §1
# [7] = target: Neu5Ac(a2-8)Neu5Ac(a2-3)Gal(b1-3)GalNAc(b1-4)[Neu5Ac(a2-3)]Gal(b1-4)Glc
# Outline: as §1
# [8] = target: Neu5Ac(a2-8)Neu5Ac(a2-3)Gal(b1-3)GalNAc(b1-4)[Neu5Ac(a2-8)Neu5Ac(a2-3)]Gal(b1-4)Glc
# Outline: as §1
# [9] = target: Neu5Ac(a2-8)Neu5Ac(a2-3)Gal(b1-4)Glc
# Outline: as §1
# [10] = target: Neu5Ac(a2-8)Neu5Ac(a2-3)Gal(b1-4)GlcNAc
# Outline: as §1
# [11] = target: Neu5Ac(a2-8)Neu5Ac(a2-3)[Gal(b1-3)GalNAc(b1-4)]Gal(b1-4)Glc
# Outline: as §1
# [12] = target: Neu5Ac(a2-8)Neu5Ac(a2-3)[GalNAc(b1-4)]Gal(b1-4)Glc
# Outline: as §1
# [13] = target: Neu5Ac(a2-8)Neu5Ac(a2-8)Neu5Ac
# Outline: as §1
# [14] = target: Neu5Ac(a2-8)Neu5Ac(a2-8)Neu5Ac(a2-3)Gal(b1-4)Glc
# Outline: as §1
# [15] = target: Neu5Ac(a2-8)Neu5Ac(a2-8)Neu5Ac(a2-3)[Gal(b1-3)GalNAc(b1-4)]Gal(b1-4)Glc
# Outline: as §1
# [16] = target: Neu5Ac(a2-8)Neu5Ac(a2-8)Neu5Ac(a2-3)[GalNAc(b1-4)]Gal(b1-4)Glc
# Outline: as §1
# [17] = target: Neu5Ac(a2-8)Neu5Ac(a2-8)Neu5Ac(a2-8)Neu5Ac(a2-3)[GalNAc(b1-4)]Gal(b1-4)Glc
# Outline: as §1
# [18] = target: Neu5Ac(a2-8)Neu5Gc(a2-3)Gal(b1-4)GlcNAc
# Outline: as §1
# Neu5Ac(b1-6)GalNAc = target: Neu5Ac(b1-6)GalNAc
# Outline: as §1
# [19] = target: Neu5Ac(b2-6)Gal(b1-4)GlcNAc
# Outline: as §1
# Neu5Ac(b2-6)GalNAc = target: Neu5Ac(b2-6)GalNAc
# Outline: as §1
# [20] = target: Neu5Ac9Ac(a2-3)Gal(b1-3)GlcNAc
# Outline: as §1
# [21] = target: Neu5Ac9Ac(a2-3)Gal(b1-4)GlcNAc
# Outline: as §1
# [22] = target: Neu5Ac9Ac(a2-6)Gal(b1-4)GlcNAc
# Outline: as §1
# [23] = target: Neu5Gc(a2-3)Gal(b1-3)GlcNAc
# Outline: as §1
# [24] = target: Neu5Gc(a2-3)Gal(b1-3)[Fuc(a1-4)]GlcNAc
# Outline: as §1
# Neu5Gc(a2-3)Gal(b1-4)Glc = target: Neu5Gc(a2-3)Gal(b1-4)Glc
# Outline: as §1
# [25] = target: Neu5Gc(a2-3)Gal(b1-4)GlcNAc
# Outline: as §1
# [26] = target: Neu5Gc(a2-3)Gal(b1-4)GlcNAc(b1-3)Gal(b1-4)GlcNAc(b1-2)Man(a1-3)[Neu5Gc(a2-3)Gal(b1-4)GlcNAc(b1-3)Gal(b1-4)GlcNAc(b1-2)Man(a1-6)]Man(b1-4)GlcNAc(b1-4)GlcNAc
# Outline: as §1
# [27] = target: Neu5Gc(a2-3)Gal(b1-4)[Fuc(a1-3)]GlcNAc
# Outline: as §1
# [28] = target: Neu5Gc(a2-6)Gal(b1-4)GlcNAc
# Outline: as §1
# Neu5Gc(a2-6)GalNAc = target: Neu5Gc(a2-6)GalNAc
# Outline: as §1
# [29] = target: Neu5Gc(a2-8)Neu5Ac(a2-3)Gal(b1-4)GlcNAc
# Outline: as §1
# [30] = target: Neu5Gc(a2-8)Neu5Gc(a2-3)Gal(b1-4)GlcNAc
# Outline: as §1
# [31] = target: Neu5Gc(a2-8)Neu5Gc(a2-3)Gal(b1-4)GlcNAc(b1-3)Gal(b1-4)GlcNAc
# Outline: as §1
# [32] = target: Neu5Gc(a2-8)Neu5Gc(a2-6)Gal(b1-4)GlcNAc
# Outline: as §1
# [33] = target: Neu5Gc(b2-6)Gal(b1-4)GlcNAc
# Outline: as §1
binder,measurement,setting,value
WGA (Triticum vulgare) (protein) QRCGEQGSNMECPNNLCCSQYGYCGMGGDYCGKGCQNGACWTSKRCGSQAGGATCPNNHCCSQYGHCGFGAEYCGAGCQGGPCRADIKCGSQSGGKLCPNNLCCSQWGFCGLGSEFCGGGCQSGACSTDKPCGKDAGGRVCTNNYCCSKWGSCGIGPGYCGAGCQSGGCDAVFAGAITANSTLLAE,glycan array binding signal (z-score),[1],-0.306
same,glycan array binding signal (z-score),[2],-0.359
same,glycan array binding signal (z-score),Neu5Ac(a2-6)GalNAc,-0.298
same,glycan array binding signal (z-score),[3],1.7
same,glycan array binding signal (z-score),[4],-0.029
same,glycan array binding signal (z-score),[5],2.48
same,glycan array binding signal (z-score),[6],3.14
same,glycan array binding signal (z-score),Neu5Ac(a2-8)Neu5Ac,-0.34
same,glycan array binding signal (z-score),[7],-0.345
same,glycan array binding signal (z-score),[8],-0.39
same,glycan array binding signal (z-score),[9],-0.376
same,glycan array binding signal (z-score),[10],-0.288
same,glycan array binding signal (z-score),[11],-0.31
same,glycan array binding signal (z-score),[12],-0.382
same,glycan array binding signal (z-score),[13],-0.363
same,glycan array binding signal (z-score),[14],-0.35
same,glycan array binding signal (z-score),[15],-0.292
same,glycan array binding signal (z-score),[16],-0.301
same,glycan array binding signal (z-score),[17],-0.352
same,glycan array binding signal (z-score),[18],-0.29
same,glycan array binding signal (z-score),Neu5Ac(b1-6)GalNAc,1.43
same,glycan array binding signal (z-score),[19],-0.366
same,glycan array binding signal (z-score),Neu5Ac(b2-6)GalNAc,-0.008
same,glycan array binding signal (z-score),[20],-0.328
same,glycan array binding signal (z-score),[21],0.222
same,glycan array binding signal (z-score),[22],-0.389
same,glycan array binding signal (z-score),[23],-0.368
same,glycan array binding signal (z-score),[24],-0.336
same,glycan array binding signal (z-score),Neu5Gc(a2-3)Gal(b1-4)Glc,-0.362
same,glycan array binding signal (z-score),[25],-0.261
same,glycan array binding signal (z-score),[26],-0.157
same,glycan array binding signal (z-score),[27],-0.347
same,glycan array binding signal (z-score),[28],-0.36
same,glycan array binding signal (z-score),Neu5Gc(a2-6)GalNAc,-0.324
same,glycan array binding signal (z-score),[29],-0.339
same,glycan array binding signal (z-score),[30],-0.351
same,glycan array binding signal (z-score),[31],-0.312
same,glycan array binding signal (z-score),[32],-0.335
same,glycan array binding signal (z-score),[33],-0.332
